Data from publication PMC4336329 (PLoS ONE, 2015).
In all, about 310,000 compounds went through this assay and about 14,000 (4.5%) showed an effect of 50% or more. The effect is printed as a negative number. The list shows a part of the results.

The molecules below were run against human ether-à-go-go-related gene (hERG) potassium channel (human, UniProt Q12809) (assay: primary screen, population patch clamp on CHO cells stably expressing hERG).
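Further: peak tail current of the secondary pulse compared with the same well before compound.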

Chain of human ether-à-go-go-related gene (hERG) potassium channel (Q12809 whole entry, looked up): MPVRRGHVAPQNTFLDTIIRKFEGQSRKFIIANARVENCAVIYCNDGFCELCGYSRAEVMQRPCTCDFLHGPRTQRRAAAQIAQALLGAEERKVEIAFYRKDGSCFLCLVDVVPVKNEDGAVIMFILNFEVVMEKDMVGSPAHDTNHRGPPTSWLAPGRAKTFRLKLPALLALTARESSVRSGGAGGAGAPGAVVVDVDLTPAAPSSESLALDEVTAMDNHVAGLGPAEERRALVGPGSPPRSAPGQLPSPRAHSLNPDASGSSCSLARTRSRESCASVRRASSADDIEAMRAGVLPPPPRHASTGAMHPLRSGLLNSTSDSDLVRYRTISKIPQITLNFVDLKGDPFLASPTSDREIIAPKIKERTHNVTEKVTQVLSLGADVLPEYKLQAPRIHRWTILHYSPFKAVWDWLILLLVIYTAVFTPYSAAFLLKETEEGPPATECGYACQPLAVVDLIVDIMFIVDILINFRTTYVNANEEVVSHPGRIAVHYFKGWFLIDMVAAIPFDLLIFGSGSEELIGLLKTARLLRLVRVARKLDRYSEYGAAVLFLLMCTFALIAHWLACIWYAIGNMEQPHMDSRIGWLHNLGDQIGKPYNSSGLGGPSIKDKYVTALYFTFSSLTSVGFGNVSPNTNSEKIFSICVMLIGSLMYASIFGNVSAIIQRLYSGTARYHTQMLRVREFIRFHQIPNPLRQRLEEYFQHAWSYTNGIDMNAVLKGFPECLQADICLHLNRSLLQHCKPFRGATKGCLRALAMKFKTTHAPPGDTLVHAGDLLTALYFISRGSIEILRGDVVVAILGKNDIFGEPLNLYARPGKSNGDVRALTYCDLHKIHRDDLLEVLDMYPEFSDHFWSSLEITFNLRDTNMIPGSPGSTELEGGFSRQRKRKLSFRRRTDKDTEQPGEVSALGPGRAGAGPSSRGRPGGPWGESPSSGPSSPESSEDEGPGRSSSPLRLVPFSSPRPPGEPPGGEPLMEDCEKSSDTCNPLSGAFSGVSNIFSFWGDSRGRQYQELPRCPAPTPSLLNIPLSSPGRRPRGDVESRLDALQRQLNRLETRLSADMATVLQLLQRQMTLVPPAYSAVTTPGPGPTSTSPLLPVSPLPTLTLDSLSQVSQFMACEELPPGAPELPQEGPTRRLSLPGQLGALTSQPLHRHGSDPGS

Row | SMILES | hERG current change (%, negative = inhibition) at 10uM [%]
1 | Cc1ccc(S(=O)(=O)Cc2nnnn2-c2ccccc2)cc1 | 2.98
2 | O=C(COc1ccccc1)Nc1ccc(N2CCN(C(=O)c3ccco3)CC2)cc1 | -53
3 | CC(=O)Nc1ccc(/C=C(\C#N)C(=O)NC2CCCCC2)cc1 | 11.2
4 | Cc1c(C(=O)NC(=S)N(Cc2ccccc2)c2ccccn2)cccc1[N+](=O)[O-] | 4.9
5 | CCOc1ccc(NC(=O)c2ccccc2NS(C)(=O)=O)cc1 | -35
6 | CCn1c(=O)c2cc(C(=O)N(C)c3ccc(OC)cc3OC)sc2c2ccccc21 | -6.48
7 | Nc1cc(S(=O)(=O)N2CCCCC2)ccc1Oc1ccc(Cl)cc1 | -8.53
8 | Cc1ccc(NC(=O)C2CCN(c3nc(C)cc(C)n3)CC2)cc1 | 26.3
9 | Cc1ccccc1NC(=O)COc1coc(CN2CCN(c3ccccc3)CC2)cc1=O | -21.1
10 | CC(C)(C)c1nnc(NC(=O)c2cccnc2Cl)s1 | 13.2
11 | COc1ccc(OCc2nn3c(-c4cccc(OC)c4)nnc3s2)cc1 | -2.35
12 | Cc1ccc(-c2csc(NC(=O)Cn3[nH]c(=O)c4ccccc4c3=O)n2)cc1 | 8.61
13 | NC(=O)CC(NC(=O)c1ccccc1)c1ccc(NCCN2CCOCC2)c([N+](=O)[O-])c1 (stereo not shown) | 11.8
14 | CC1=NN(c2ccccc2)C(=O)C1/C=C1\NC(=S)NC1=O (stereo not shown) | 26.5
15 | COc1ccccc1NC(=O)Cn1nnc2sc3c(c2c1=O)CC(C)(C)OC3 | 7.33
16 | CCCCNC(=O)CSc1cc(=O)n(C)c2ccccc12 | 4.11
17 | Cl.Nc1nc(Nc2cccc(F)c2)nc2ccccc12 | -19.3
18 | COc1cccc2cc(CC(=O)c3ccc(C)c(C)c3)c(=O)oc12 | 4.6
19 | CCCCC(=O)Nc1ccc(Cl)cn1 | -8.54
20 | O=C(NC1=NCCS1)c1ccccc1OCc1ccccc1Cl | -4.33
21 | CC(C)c1onc(C(=O)Nc2cccc(Cl)c2)c1[N+](=O)[O-] | 12.3
22 | CCCc1cc2c(cc1NC(=O)c1ccccc1Cl)OCO2 | 11.9
23 | Cc1cccc(-n2cnc3sc(C)c(C)c3c2=O)c1 | -2.72
24 | COc1ccc(/C=C(\C#N)C(=O)c2c(C)[nH]c3ccccc23)cc1OC | -5.95
25 | Fc1ccc2c(c1)C(c1ccncc1)=NNC(c1ccc(Cl)cc1)=N2 | -0.894
26 | Cc1ccc(C)c(Cn2c3ccccc3c3cnn(CC(=O)NCc4ccccn4)c(=O)c32)c1 | 9.09
27 | CC1(C)NC(C)(C)C(O)(C(N)=O)C1=O (stereo not shown) | 0.964
28 | COc1ccc(C(O)(CCc2ccccc2)CCN2CCCCC2)cc1.Cl (stereo not shown) | -17.5
